No constants are given. Whether binding was seen depends on the method and setting. Binding seen in cells or lysates may run through a third protein. Some entries that bind do so weakly or less than the wild type.
Assays:
[1] = biological target: HA-C-terminally truncated Cdk6 (Cdk6 ΔC) (mouse) (UniProt Q64261); assay: co-IP; anti-HA magnetic beads on extracts of Cdk6, Cdk6 ΔC and Cdk6-/- p185 BCR-ABL+ cell lines; partners detected by immunoblot; Cdk6-/- cells as negative control
[2] = biological target: full length HA-tagged Cdk6 (mouse) (UniProt Q64261); assay: as above
Cdk6 ΔC-F[1] (mouse) = Cdk6 ΔC-F[1] (mouse) (UniProt Q64261); assay: split reporter; Renilla luciferase protein-fragment complementation assay (Rluc-PCA) in intact HEK293T cells, 48 h after transfection; bioluminescence (RLU) after benzyl-coelenterazine; also with co-expressed p16^INK4a-flag
Cdk6-F[1] (mouse) = Cdk6-F[1] (mouse) (UniProt Q64261); assay: as above

Chains of the proteins cited; added tags and fusions are not shown. Lines headed by an entry give the natural chain unless they say otherwise; changes in a name come on top. Residues count along the entry.
UniProt Q64261: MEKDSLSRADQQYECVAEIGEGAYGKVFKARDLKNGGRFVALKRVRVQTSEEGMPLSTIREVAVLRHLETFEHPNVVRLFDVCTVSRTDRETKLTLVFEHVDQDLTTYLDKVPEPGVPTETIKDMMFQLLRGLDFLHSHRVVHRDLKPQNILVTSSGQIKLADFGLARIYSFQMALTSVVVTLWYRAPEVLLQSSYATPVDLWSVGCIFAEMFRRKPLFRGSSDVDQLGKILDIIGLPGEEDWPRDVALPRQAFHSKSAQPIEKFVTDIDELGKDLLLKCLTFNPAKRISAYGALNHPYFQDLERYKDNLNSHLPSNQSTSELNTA
HA-C-terminally truncated Cdk6 (Cdk6 ΔC): residues 1-294 of Q64261
UniProt Q60772: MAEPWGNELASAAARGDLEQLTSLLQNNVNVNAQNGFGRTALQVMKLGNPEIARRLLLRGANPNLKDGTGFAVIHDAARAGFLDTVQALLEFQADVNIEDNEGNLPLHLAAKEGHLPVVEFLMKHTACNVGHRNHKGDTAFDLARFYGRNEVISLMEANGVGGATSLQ
UniProt P46414: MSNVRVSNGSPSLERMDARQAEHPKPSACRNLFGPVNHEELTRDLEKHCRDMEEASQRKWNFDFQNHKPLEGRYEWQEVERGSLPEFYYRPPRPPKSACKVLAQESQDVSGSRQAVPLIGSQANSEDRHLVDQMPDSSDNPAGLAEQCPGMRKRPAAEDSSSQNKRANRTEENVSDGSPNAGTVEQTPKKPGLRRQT

Molecule | binding [1] | binding [2] | binding (Cdk6 ΔC-F[1] (mouse)) | binding (Cdk6-F[1] (mouse))
p18^INK4c (from UniProt Q60772 1-168) | no binding | binds | – | –
p27^Kip1 (from UniProt P46414 1-197) | no binding | binds | – | –
p19^INK4d (protein, UniProt Q60773 1-166) MLLEEVCVGDRLSGAAARGDVQEVRRLLHRELVHPDALNRFGKTALQVMMFGSPAVALELLKQGASPNVQDASGTSPVHDAARTGFLDTLKVLVEHGADVNALDSTGSLPIHLAIREGHSSVVSFLAPESDLHHRDASGLTPLELARQRGAQNLMDILQGHMMIPM | no binding | binds | – | –
cyclin D3 (protein, UniProt P30282 1-292) MELLCCEGTRHAPRAGPDPRLLGDQRVLQSLLRLEERYVPRASYFQCVQKEIKPHMRKMLAYWMLEVCEEQRCEEDVFPLAMNYLDRYLSCVPTRKAQLQLLGTVCLLLASKLRETTPLTIEKLCIYTDQAVAPWQLREWEVLVLGKLKWDLAAVIAHDFLALILHRLSLPSDRQALVKKHAQTFLALCATDYTFAMYPPSMIATGSIGAAVLGLGACSMSADELTELLAGITGTEVDCLRACQEQIEAALRESLREAAQTAPSPVPKAPRGSSSQGPSQTSTPTDVTAIHL | no binding | binds | – | –
p16^INK4a-F[2] (protein, UniProt P51480 1-168) MESAADRLARAAAQGRVHDVRALLEAGVSPNAPNSFGRTPIQVMMMGNVHVAALLLNYGADSNCEDPTTFSRPVHDAAREGFLDTLVVLHGSGARLDVRDAWGRLPLDLAQERGHQDIVRYLRSAGCSLCSAGWSLCTAGNVAQTDGHSFSSSTPRALELRGQSQEQS | – | – | no binding | binds
p16^INK4a (protein, UniProt P51480 1-168) MESAADRLARAAAQGRVHDVRALLEAGVSPNAPNSFGRTPIQVMMMGNVHVAALLLNYGADSNCEDPTTFSRPVHDAAREGFLDTLVVLHGSGARLDVRDAWGRLPLDLAQERGHQDIVRYLRSAGCSLCSAGWSLCTAGNVAQTDGHSFSSSTPRALELRGQSQEQS | no binding | binds | – | –

From paper PMC11787673
